Data on 61 compounds can be found in PubChem BioAssay AID1508623 (National Center for Advancing Translational Sciences (NCATS), 2021).

Screen size: about 48,000 compounds; about 450 (0.94%) were called active. Another 19% or so got no clear call; they are omitted. Calls follow the shape of the dose curve; as a rule, active = well fitted inhibition curve with a large enough effect; inconclusive = small, poorly fitted or top-dose-only effect; inactive = no such curve, though single readings can be large or run the other way. The list shows a part of the results.
Potency is read from the fitted curve at half-maximal effect.

The assay is described as follows: Primary qHTS for Identification of Small Molecule Inhibitors of Huntingtin Promoter Activity. Also: nearly all actives have a fitted effect of over 50% in size. The note with it: HEK293 HTT promoter firefly luciferase reporter (activity 0% = vehicle and -100% = no light), 24 h; series mostly up to 57.5 µM; activity change, negative = inhibition: at the top concentration. In short, it runs like this:
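Luminescence was read after Dual-Glo reagent and a 10 min room-temperature incubation. Values were normalized to vehicle (0% activity) and zero RLU (-100% activity). Reporter HEK293 cells had been exposed to compounds (up to 57.5 uM final) for 24 h.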
On the technique in general: Quantitative high-throughput screening tests each substance at several concentrations.
Take `Cc1cccc(Cn2cccc2CNS(=O)(=O)c2ccc(C)c(C)c2)c1`: the “activity change, negative = inhibition” value is inactive: -25.5%.

With `CCCCN(Cc1ccco1)C(=O)Cn1ncc2c([nH]c3ccccc32)c1=O`, the “activity change, negative = inhibition” value was inactive: -12.1%.

In the case of `CN1CCSc2ccc(C(=O)NCc3ccccc3)cc21`, the “activity change, negative = inhibition” value is inactive: 19.1%.

Regarding `CN1c2ccccc2C(=O)N2CCc3c([nH]c4ccccc34)C21` (stereo unspecified), the “activity change, negative = inhibition” value is inactive: -2.8%.

Regarding `O=C(c1ccco1)n1nc(-c2ccc(Cl)cc2)nc1NCc1ccc(F)cc1`, the “activity change, negative = inhibition” value is inactive: -17.1%.

In the case of `COc1ccc(C2C(C(=O)Nc3ccccc3)=C(C)Nc3nc(-c4ccccc4Cl)nn32)cc1OC` (stereo unspecified), the “activity change, negative = inhibition” value is inactive: -15.4%.

Take `CCOCCCNc1nc2cc(OC)c(OC)cc2c2nc(-c3ccccc3)nn12`: the “activity change, negative = inhibition” value is inactive: -2.87%.

With `CCOC(=O)c1scc(-c2ccc(C)cc2)c1S(=O)(=O)Nc1ccc(OC)c(Cl)c1`, the “activity change, negative = inhibition” value is inactive: -31.3%.

For `Cc1ccc(NC(=O)Cn2c(=O)n(CCC(=O)NCc3ccccc3Cl)c(=O)c3ccccc32)c(C)c1`, the “activity change, negative = inhibition” value is inactive: -8.49%.

On to `Clc1ccccc1Nc1ncnc2c1nc1n2CCCCC1`, for which the “activity change, negative = inhibition” value is inactive: -19.4%.

Consider `O=C(Nc1ccc2nc(SCCOc3ccccc3)sc2c1)c1ccc2c(c1)OCO2`, for which the “activity change, negative = inhibition” value is inactive: -3.35%.

`COc1cc2[nH]c(=O)n(CCCCCC(=O)N3CCN(c4ccc(Cl)cc4)CC3)c(=O)c2cc1OC`: the “activity change, negative = inhibition” value was inactive: -18.5%.

With `Cc1cccc(Cn2c(=O)n(CC3CCC(C(=O)N4CCC(C)CC4)CC3)c(=O)c3sccc32)c1` (stereo unspecified), the “activity change, negative = inhibition” value is inactive: 0.297%.

As for `O=C(CSc1cn(CC(=O)N2CCCC2)c2ccccc12)Nc1ccccc1C(F)(F)F`, the “activity change, negative = inhibition” value was inactive: -17.5%.

With `Cc1ccc(CNC(=O)CN(c2cc(C)cc(C)c2)S(=O)(=O)c2c(C)noc2C)cc1`, the “activity change, negative = inhibition” value is inactive: 5.21%.

On to `Cc1nc2cc(-c3ccccc3)nn2c(C)c1CCC(=O)NCc1cccc(Cl)c1`, for which the Potency was active: 12.6 µM.

For `COC(=O)c1ccccc1NC(=O)c1ccc2c(Cl)c3c(nc2c1)CCCC3`, the “activity change, negative = inhibition” value was inactive: 42.4%.

Take `CCOC(=O)Cc1ccc(NC(=O)N2CC(C)Oc3ccc(Cl)cc32)cc1` (stereo unspecified): the “activity change, negative = inhibition” value is inactive: -17.4%.

Regarding `COc1cc2nc(NCc3ccccc3)n3nc(-c4ccccc4)nc3c2cc1OC`, the “activity change, negative = inhibition” value was inactive: -2.68%.

For the compound `Cc1nc2ccn(Cc3cccs3)c(=O)c2cc1C(=O)N1CCN(c2ccccc2)CC1`, the “activity change, negative = inhibition” value is inactive: -9.83%.

For `O=C(Nc1cccc(Br)c1)c1cc(-c2ccc3c(c2)OCCO3)on1`, the “activity change, negative = inhibition” value is inactive: -27.7%.

Consider `Cc1ccccc1CNCCSc1nnnn1-c1ccccc1`, for which the “activity change, negative = inhibition” value is inactive: -9.01%.

Regarding `Cc1ccc2c(c1)N(CC(=O)NCCCN1CCCCC1C)C(=O)c1cccnc1O2` (stereo unspecified), the “activity change, negative = inhibition” value is inactive: -3.89%.

For the compound `Cc1ccc2c(c1)N(S(=O)(=O)c1ccc3c(c1)NC(=O)CC(=O)N3)CCO2`, the “activity change, negative = inhibition” value was inactive: 2.51%.

Consider `COc1ccc(-n2c(=O)c3ccc(C(=O)NCc4ccc(C)cc4)cc3n(Cc3ccc(C)cc3)c2=O)cc1`, for which the “activity change, negative = inhibition” value was inactive: -15.6%.

Turning to `Cc1nc2nc(SCC(=O)N(Cc3ccccc3)C(C)C)nn2c(C)c1Cc1ccccc1Cl`, the “activity change, negative = inhibition” value is inactive: -16.1%.

For the compound `Cc1cc(C)c2sc(N3CCN(C(=O)C4CC4)CC3)nc2c1`, the “activity change, negative = inhibition” value was inactive: 0%.

Consider `COc1ccc(Oc2nc3c(C)cccn3c(=O)c2/C=C(\C#N)c2nc3ccccc3[nH]2)cc1`, for which the “activity change, negative = inhibition” value was inactive: 1.3%.

Turning to `CCc1ccc2ncc3c(-c4ccc(C)cc4)nn(CC(=O)Nc4ccc(C)cc4)c3c2c1`, the “activity change, negative = inhibition” value is inactive: 12.3%.

As to `Cc1cc(C)c(NC(=O)Cn2c(=O)n(-c3ccc(F)cc3)c(=O)c3c(C)c(C(=O)N(C)C)sc32)c(C)c1`, the “activity change, negative = inhibition” value is inactive: -17.7%.

As for `COC(=O)c1cc2occc2n1Cc1nc(-c2cccc(Br)c2)oc1C`, the “activity change, negative = inhibition” value was inactive: 2.92%.

Take `COc1ccc(C(=O)c2sc(Nc3cc(Cl)ccc3C)nc2N)cc1OC`: the “activity change, negative = inhibition” value was inactive: -6.73%.

Take `COc1ccc(C(=O)Nc2ccccc2-c2nc3ccccc3s2)c(OC)c1`: the “activity change, negative = inhibition” value was inactive: -25%.

Turning to `CCOC(=O)c1cnc2ccc(Cl)cc2c1Nc1ccc(OCC)cc1`, the “activity change, negative = inhibition” value is inactive: -40.2%.

As to `Cc1cccn2c(=O)cc(COc3cccc(NC(=O)COc4ccccc4)c3)nc12`, the “activity change, negative = inhibition” value was inactive: 13%.

On to `COc1cccc(-c2nc3c(c(SCC(=O)Nc4cc(C)ccc4C)n2)Cc2c(CO)cnc(C)c2O3)c1`, for which the “activity change, negative = inhibition” value is inactive: -22.5%.

With `CC(=O)c1ccc(NC(=O)CCc2nc(-c3ccc(C)cc3)no2)cc1`, the “activity change, negative = inhibition” value is inactive: -14.5%.

`CC(=O)c1ccc(NC(=O)CSc2nc(C3CCCC3)nc3c2c(=O)n(C)c(=O)n3C)cc1`: the “activity change, negative = inhibition” value was inactive: -4.67%.

`Cc1nc(-n2nc(C)c(CCC(C)C)c2C)sc1C(=O)Nc1ccc(Br)cc1`: the “activity change, negative = inhibition” value was inactive: -8.71%.

On to `COc1ccc(CCNC(=O)CCCn2c(SCC(N)=O)nc3cc4c(cc3c2=O)OCO4)cc1OC`, for which the “activity change, negative = inhibition” value was inactive: -18.1%.

With `CCOC(=O)N1CCc2c(sc3c2c(=O)n(Cc2ccccc2)c(=O)n3Cc2ccc(C)cc2)C1`, the “activity change, negative = inhibition” value is inactive: -4.14%.

Consider `COc1ccc(CNC(=O)C2=C(C)C(=O)OC23CCN(C(C)=O)CC3)cc1`, for which the “activity change, negative = inhibition” value was inactive: -3.98%.

In the case of `CCOc1ccccc1CNC(=O)c1ccc(Cn2c(SCc3ccccc3)nc3cccnc32)cc1`, the “activity change, negative = inhibition” value was inactive: 0.198%.

With `CC(C)OC(=O)/C(C#N)=C/c1ccc(-c2ccc(Cl)c(Cl)c2)o1`, the activity change, negative = inhibition is inactive: -13.7% [at 11.5 µM].

In the case of `Fc1ccc(N2CCN(Cc3cccn3-c3nnc(N4CCN(C5CCCCC5)CC4)s3)CC2)cc1`, the “activity change, negative = inhibition” value was inactive: -2.3%.

With `Cc1ccc(NC(=O)C2CCCN(c3cnccn3)C2)c(C)c1` (stereo unspecified), the “activity change, negative = inhibition” value was inactive: 16.5%.

`Nc1ncnc2nc[nH]c12`: the “activity change, negative = inhibition” value was inactive: 14.8%.

On to `Cc1cccc(C)c1NC(=O)CCS(=O)(=O)c1cccc2nonc12`, for which the “activity change, negative = inhibition” value was inactive: -4.37%.

Consider `CCOC(=O)c1ccc(NC2=CC(c3ccc(F)cc3)N(c3ccc(C(=O)OCC)cc3)C2=O)cc1` (stereo unspecified), for which the “activity change, negative = inhibition” value is inactive: 2.14%.

As for `CCOc1ccccc1NC(=O)c1cc2c(=O)n(Cc3cccnc3)ccc2nc1C`, the “activity change, negative = inhibition” value is inactive: -0.774%.

For the compound `CCCSc1nc2sc3c(c2c(=O)n1-c1cccc(Br)c1)CC(C)(C)OC3`, the “activity change, negative = inhibition” value is inactive: 4.94%.

`Cc1ccccc1Cn1c(SCc2ccc(C(=O)NC3CCCC3)cc2)nc2ccncc21`: the “activity change, negative = inhibition” value was inactive: -2.54%.

With `COc1ccccc1N=c1scc(-c2ccc(S(=O)(=O)N3CCCC3)cc2)n1C`, the Potency was active: 3.16 µM.

For `COc1ccccc1CNC(=O)CCNS(=O)(=O)c1cccc2nsnc12`, the “activity change, negative = inhibition” value is inactive: -2.81%.

`Cc1nc2c(c(C)nn2-c2ccccc2)c(C)c1CCC(=O)NCCc1ccc(Cl)cc1`: the “activity change, negative = inhibition” value is inactive: 5.09%.

Regarding `COc1cccc(NC(=O)N2CCN(C(=O)c3nsc4ccccc34)CC2)c1`, the “activity change, negative = inhibition” value was inactive: -21.6%.

Take `COc1ccc(NC(=O)N2CCN3CCCCC3C2)cc1OC` (stereo unspecified): the “activity change, negative = inhibition” value is inactive: -4.89%.

Consider `COc1cc(C2NC(=O)c3c(sc4c3CCN(C)C4)N2)ccc1OC(=O)c1ccccc1` (stereo unspecified), for which the “activity change, negative = inhibition” value is inactive: 64.5%.

Regarding `Cc1ccc(S(=O)(=O)c2nnn3c2nc(NCc2ccccc2Cl)c2sccc23)cc1`, the “activity change, negative = inhibition” value was inactive: -4.87%.

In the case of `CCOC(=O)c1ccc(NC(=O)c2nn(C)c3c2COc2ccccc2-3)cc1`, the “activity change, negative = inhibition” value is inactive: -16.1%.

Consider `CC(C)c1ccc(OCc2cc(=O)n3c(-c4ccccc4)csc3n2)cc1`, for which the “activity change, negative = inhibition” value is inactive: -16.1%.
